Data reported in the supplement of paper PMC3334620.
Whole data set: some 33,000 sequences, median “E-score (-0.5 to 0.5)” near -0.01, cut for the highest 2% near 0.26. Some of the results follow.

What follows are sequences tested against Ste12 (UniProt P13574) (assay: PBM E-score (8-mer binding enrichment) (E-score (-0.5 to 0.5)); higher = stronger / more preferred TF binding; most listed sequences are background and not binding sites). Details: protein concentration: 200 nM; construct: GST-DNA-binding domain.
How it was run: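 PURExpress in vitro transcription/translation supplied GST-tagged yeast transcription factors, either full-length or DNA-binding domain. Applied at about 100-200 nM to universal all-10-mer Agilent arrays double-stranded by primer extension, the bound protein was detected with fluorescent anti-GST. E-scores, modified Wilcoxon-Mann-Whitney statistics, were given by the Universal PBM Analysis Suite to ungapped eight-base words pooled with their reverse complements after masliner normalisation.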

Sequence | PBM E-score
AACATAAA | 0.249
GGGGACGA | -0.173
AGATTTAT | 0.234
AATTACAA | 0.118
AGACACGA | 0.0828
ATCTACCG | 0.0211
TGACTGAA | 0.0244
AACTAGAG | 0.105
CGCACACC | 0.0291
ACGGCTTA | 0.00641
CATCTGGG | -0.0158
GCTTAGCC | -0.115
GGGATGCA | -0.0678
ACAATCTA | 0.0392
CCGAGTGA | -0.0607
GATACTCA | 0.0586
GACTCGCC | -0.104
GGGAGCGA | -0.0631
GATCTAAA | 0.157
ATCACTCA | -0.0868
ACTAGAGG | -0.134
AGAAGGCA | -0.121
CCGAGCAC | 0.01
GCATTTAA | 0.12
CCATCGCG | 0.023

Sequence | PBM E-score
GAAGTCCA | -0.208
GGCGAAAA | 0.234
AGCAGAGA | -0.0271
ACGAAATG | 0.0753
AGCGCCGC | 3e-05
CACCCGAA | 0.223
AATGCCGA | 0.0021
GTCGTCGA | -0.17
CTGCCGCA | 0.0784
CTATAATC | 0.0522
ACGCTGTA | 0.00742
CTTTAGAA | 0.0701
ACGTAGGA | -0.131
GACTAGCA | -0.106
AATCGAAT | 0.222
GCCCAGGA | 0.0726
TAACTATA | 0.046
GCGGCAGC | 0.00517
TAGCGCAA | 0.144
GCGTATTA | -0.0112
GTAGCGCA | 0.115
CCGGCTAA | 0.0663
CTGGGACA | -0.0584
AACGCACT | -0.0209
AATTTGTG | 0.169

Sequence | PBM E-score
AAGGACAA | 0.0794
AAACTTCT | 0.088
GGCAAGCC | -0.0158
CCTAACAC | -0.0384
CGGCTTAG | -0.0725
ACTCCCTA | -0.148
ATTAGTCG | 0.148
CACATCAG | 0.00816
GGGTAGTA | -0.0859
AGTACGCC | -0.21
ACGGTCTC | -0.101
GATGCCTA | -0.26
GCGGTGCC | -0.0915
GACTTACA | -0.195
CACTAGTA | -0.117
CTGCTGTC | -0.0137
ATCGAGTC | 0.0308
AACAGATA | 0.13
ACCTATAA | 0.0688
CCCGCTAA | -0.0154
ACCAGGCC | -0.0799
TAAATCGA | 0.145
CAGTGGGG | -0.118
GAGGAAAC | 0.106
GACTTTCC | 0.0228

Sequence | PBM E-score
AGACGATG | -0.0498
CATGTAGA | -0.0121
GCTGGATA | 0.0153
ATCTGCAC | -0.118
AGCGCGGG | 0.0421
CCGAAGCA | -0.114
CAACATTG | 0.201
CACCACAC | -0.09
CGTGACAG | -0.00929
ATCCGACA | -0.105
ATTAAGAG | 0.0211
ACCAGCCC | -0.0943
AACCGTCC | 0.0376
AGTTTCGC | 0.184
ACCTTAAC | 0.138
GGTGTATA | -0.168
GATGCCAC | -0.16
AGACTCCG | -0.178
CAAGCTAA | -0.147
ACGCCAGA | 0.0478
ACCCGACA | 0.0405
CCTATATA | 0.0209
CGATTGAC | 0.0755
ATACGGGA | 0.0194
CTTCCTGA | 0.0627

Sequence | PBM E-score
AGCGTCCA | -0.26
AATATTTG | 0.21
CAACTTCG | 0.228
AGGGGAGG | 0.348
ATCCACAT | -0.0297
AAACAGTG | 0.309
CGCGGTGC | -0.204
AATACTGG | 0.0598
CCCAGCAC | -0.227
CATACATC | -0.0613
GGGTACCC | -0.219
CAAAGCCA | 0.00332
CCCGGCCG | -0.239
GCGTCCTA | 0.00273
CAGACCCA | 0.0324
CTGCTAGA | -0.194
CGTAAAGA | -0.0705
CGGTTGAC | -0.0904
AGATTCTG | -0.185
GATTGCGA | 0.103
CATATCAG | 0.0421
TCAAGCAA | 0.119
AGCCGACG | -0.0138
CTTCGGGA | -0.065
CCGCGTGA | -0.0137

Sequence | PBM E-score
CCACTCCA | -0.0281
CATTGCCA | -0.0301
CGAGATCA | -0.0536
CGAAAATC | 0.0318
TATCGTCA | 0.0847
ACGCGGCT | -0.081
AGCTACAT | -0.222
ACTTCGTG | 0.0745
CCATTCTA | -0.0163
AGTACCTG | -0.0853
AGGCTGTC | -0.0443
TACGGCAA | 0.0168
CCAGGGTC | -0.17
CGAACGAC | -0.034
CCTGACAA | -0.0135
GATCCGCA | -0.127
CCCGCATC | 0.101
CCCGTCCA | 0.0294
AGACCTCG | -0.0758
GATAAGTA | 0.00593
ATTCCAGG | -0.0608
AACCCCAA | 0.0298
ACCTGTAC | -0.0307
CCATAGTC | -0.106
GAATGGTC | -0.0459

Sequence | PBM E-score
ACAATGGT | -0.158
AAGCGATT | -0.0133
CAGGTACG | -0.0567
CGCAATCA | 0.0872
AAGAAAAT | 0.254
CTATAAGC | -0.0583
GACTACTA | -0.138
GAGACATC | -0.0449
CATGCGGG | -0.0626
CAAGCGTC | -0.128
AGGCGGGA | 0.0721
ATGGCTAC | 0.0632
GCCTGCGC | -0.119
ACACCGGA | -0.00681
GACGTAAA | -0.00157
GATAAGAC | 0.0185
GTAACCAA | 0.0303
ACTTTCAA | 0.167
CAGTGAAC | -0.0119
GTCCAATA | -0.143
GAAGGGCC | -0.158
GAGACGCA | -0.0443
